Data published in paper PMC6919601, “Identification of Plasmodium dipeptidyl aminopeptidase allosteric inhibitors by high throughput screening” (PLoS ONE, 2019).
The whole screen tested about 110,000 compounds, of which about 230 (0.21%) showed an effect of 50% or more. The list shows a part of the results.

Biological target: DPAP1 (Plasmodium falciparum, UniProt Q8IIJ9)
Assay: primary screen, percent inhibition; read by cleavage of a fluorogenic dipeptide substrate; higher = more effect of the substance
Design: species or system P. falciparum D10 trophozoite lysates; single well
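Also: 30 min substrate incubation versus DMSO and 10 µM JCP410 controls.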

DPAP1, sequence (Q8IIJ9 whole entry, looked up): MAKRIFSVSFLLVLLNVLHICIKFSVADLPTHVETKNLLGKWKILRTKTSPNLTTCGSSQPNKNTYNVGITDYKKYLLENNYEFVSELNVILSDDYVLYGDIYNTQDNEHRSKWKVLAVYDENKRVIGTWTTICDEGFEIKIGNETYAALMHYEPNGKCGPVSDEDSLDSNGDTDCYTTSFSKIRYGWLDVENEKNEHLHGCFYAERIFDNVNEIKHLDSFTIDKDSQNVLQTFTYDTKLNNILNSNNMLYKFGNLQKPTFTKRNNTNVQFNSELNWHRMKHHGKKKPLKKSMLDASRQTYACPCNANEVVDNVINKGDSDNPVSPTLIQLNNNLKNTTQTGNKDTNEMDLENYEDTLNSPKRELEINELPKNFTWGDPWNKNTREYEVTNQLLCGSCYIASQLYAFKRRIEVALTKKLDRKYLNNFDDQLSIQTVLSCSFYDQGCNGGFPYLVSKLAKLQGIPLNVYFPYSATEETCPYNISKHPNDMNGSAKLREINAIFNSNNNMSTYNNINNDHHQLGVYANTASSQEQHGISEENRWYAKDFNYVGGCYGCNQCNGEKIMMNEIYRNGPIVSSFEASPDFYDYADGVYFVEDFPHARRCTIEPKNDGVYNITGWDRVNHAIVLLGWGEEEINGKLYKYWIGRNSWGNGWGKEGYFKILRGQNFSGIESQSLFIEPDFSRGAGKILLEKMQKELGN

Row | Compound | % Inhibition @ 10 uM [%]
1 | Cc1cccc(NC(=O)c2cc(F)c(Cl)nc2Cl)c1C | 0.907
2 | CCCN(CCO)Cc1ccc(F)cc1F | 2.7
3 | Cc1cc(C(=O)O)c(NC(=O)c2ccccc2Br)s1 | -2.6
4 | O=S(=O)(NCCc1nnc2ccc(SCc3cccc(F)c3)nn12)c1ccccc1 | 2.75
5 | COc1ccc(-c2c(C)nn3c(N4CCC(C(=O)N5CCN(C)CC5)CC4)cc(C)nc23)cc1OC | -1.89
6 | CCO/C(O)=C1\C(C)=NC2=C(C(=O)CCC2)C1c1ccc(C)s1 (stereo not shown) | -3.14
7 | CN(CCCNS(=O)(=O)c1csc(C(N)=O)c1)Cc1ccccc1 | -6.19
8 | CC(C)CC(NC(=O)c1ccc(NC(=O)N2CCN(CCN3CCOCC3)CC2)cc1)C(=O)NCC#N (stereo not shown) | 5.05
9 | COc1ccc(C2Nn3c(nnc3-c3ccccc3)SC2C(=O)NCc2ccco2)cc1Cl (stereo not shown) | -3.76
10 | COc1ccc(/C=C/C(=O)c2c(O)ccc3c(C)cc(=O)oc23)cc1 | 0.238
11 | Cn1c(C(=O)N2CCCC(C(=O)N3CCN(Cc4ccc5c(c4)OCO5)CC3)C2)cc2sccc21 (stereo not shown) | -2.01
12 | CCCCN(Cc1ccccc1)Cc1ccc(-c2cccc(Cl)c2)o1 | -3.5
13 | CCOc1ccccc1C1C(C#N)=C(N)Oc2cc(C)oc(=O)c21 (stereo not shown) | -3.13
14 | CC(C)NC(=O)CSc1cn(CC(=O)N2CCOCC2)c2ccccc12 | -2.84
15 | CCc1ccc(/C(O)=C/C=N/c2ccc(OC)cc2OC)cc1 | 2.46
16 | Cc1ccc(NC(=O)CN2C(=O)S/C(=C\c3cccn3C)C2=O)c(C)c1 | -10.8
17 | CN(C)S(=O)(=O)c1cc(C(=O)NCCOC23CC4CC(CC(C4)C2)C3)c(Cl)cc1Cl | 2.7
18 | CCOc1ccc(CCn2c3c(c(=O)[nH]c2=O)C(NC(C)=O)(C(F)(F)F)C(=O)N3)cc1OCC (stereo not shown) | -1.57
19 | CN(C)CCNC(=O)CN1C(=O)c2ccccc2Sc2ncccc21 | -3.86
20 | Cc1cc(NC(=O)CCCC(=O)O)no1 | 0.64
21 | O=C(CSCC(=O)c1ccccc1)Nc1ccc2ccccc2c1 | -4.4
22 | Cc1c(C(=O)NCCO)oc2cc3c(C)c(C(=O)NCCO)oc3cc12 | 2.99
23 | Cc1nn(C)cc1CN(C)C(=O)c1cc2n(n1)C(C(F)(F)F)CC(c1ccc3c(c1)OCO3)N2 (stereo not shown) | 10
24 | CCCC(C)NC(=O)c1ccc(N(C)C)cc1 (stereo not shown) | -6.62
25 | COc1ccc(/C=C/C(=O)Nc2ccc(N3CCOCC3)cc2)cc1 | 3

Row | Compound | % Inhibition @ 10 uM [%]
26 | CN(Cc1nc2ccccc2n1C)C(=O)c1ccc(Cl)cc1 | -0.671
27 | COc1ccc(OC)c(CN2CCN(Cc3ccc(OC)c(Br)c3)CC2)c1 | -0.622
28 | COc1ccc2c(c1)c1c(c(=O)n(Cc3ccccc3)c(=O)n1CC(N)=O)n2C | 6.16
29 | COC(=O)c1cnn2c(O)c(Cl)c(C)nc12 | -5.8
30 | COC(=O)c1nnn(-c2ccc(C)cc2)c1C(=O)OC | -1.58
31 | CCCNC(=O)c1ccc(CSc2nc3ccncc3n2Cc2ccc(F)cc2)cc1 | -2.37
32 | CO/C(O)=C1\C(C)=Nc2c(c(=O)n(C)c(=O)n2C)C1c1cccc(OCc2ccccc2)c1 (stereo not shown) | 0.147
33 | Cc1ccc(Cn2c(C)c3cnn(CC(=O)NC(C)CCc4ccccc4)c(=O)c3c2C)cc1 (stereo not shown) | -3.96
34 | C=C(C)Cn1c(SCCc2ccccc2)nc2c1c(=O)[nH]c(=O)n2C | 8.26
35 | O=C(Cn1ncc2c1-c1ccccc1OC2)Nc1cccnc1Cl | 0.981
36 | CC(C)(C)c1ccccc1OCC(=O)NC1CCCC1 | 3.01
37 | O=C1CCC(C(=O)Nc2cccc(Br)c2)N1 (stereo not shown) | -6.08
38 | Nc1ccc(-c2nc3cc(N)ccc3o2)c(O)c1 | -3.52
39 | Cc1oc(-c2ccccc2)cc1C(N)=O | 2.05
40 | COc1ccc(CNC(=O)c2cnc3ccccn3c2=O)cc1 | 0.0579
41 | CC(C)(O)C#Cc1ccc(C(=O)N2CCC(C(N)=O)(N3CCCCC3)CC2)cc1 | -0.661
42 | OCCN(Cc1ccccc1)Cc1cccc(Br)c1 | -7.93
43 | N=C(NOC(=O)c1ccco1)c1ccccn1 | -3.63
44 | CCN(CC)c1ccc(CN2CCCC(CO)C2)cc1 (stereo not shown) | 0.472
45 | CS(=O)(=O)N(CC(=O)Nc1cccc(F)c1)Cc1ccccc1 | -7.5
46 | Nc1ncnc2c1ncn2Cc1ccccc1 | 1.25
47 | COCCNC(=O)c1cc2n(n1)C(C(F)(F)F)CC(c1ccc(Br)cc1)N2 (stereo not shown) | 7.93
48 | CNC(=O)/C(C#N)=C/c1c(Oc2cccc(C)c2C)nc2c(C)cccn2c1=O | -3.23
49 | COc1cccc(CNC2CCCCCCC2)c1OC | -4.04
50 | O=C(CCN1C(=O)C2C3C=CC(C3)C2C1=O)Nc1cccnc1 (stereo not shown) | -0.551

Row | Compound | % Inhibition @ 10 uM [%]
51 | COc1cccc(NC(=O)CSC2=C(C#N)C(c3ccc(Cl)cc3)CC(=O)N2)c1 (stereo not shown) | 1.37
52 | Cc1cc2ccccc2n1CCNC(=O)c1cccc(C(F)(F)F)c1 | -4.81
53 | O=C1C(NS(=O)(=O)c2ccccc2)=C(N2CCOCC2)C(=O)c2ccccc21 | 7.92
54 | Cc1cc(O)c(C2=NCCSC(c3cccc(O)c3)C2)c(=O)o1 (stereo not shown) | 2.94
55 | Cc1cccc(NC(=O)CN2CC(c3ccccc3)CC2=O)c1C (stereo not shown) | 1.15
56 | CC1CCN(C(=O)Cn2ncc3c(Cl)cccc32)CC1 | 3.65
57 | O=C(CSc1nc2ccc(N3C(=O)c4ccccc4C3=O)cc2s1)NC1CC1 | 1.37
58 | COc1ccc(OC)c(N(CC(=O)Nc2ccc(Cl)cc2)S(C)(=O)=O)c1 | 0.324
59 | O=C1NC(NS(=O)(=O)c2ccc(Cl)cc2)(C(F)(F)F)C(=O)N1Cc1cccnc1 (stereo not shown) | -2.63
60 | Cc1ccc(CNC(=O)CCc2ccc(S(=O)(=O)NC3CCCCC3)cc2)cc1 | 1.1
61 | CCC1=NN(C(=O)c2cccnc2)C(O)(c2ccccc2)C1 (stereo not shown) | 1.96
62 | C=CCN1C(=O)N/C(=C/c2ccc(C(C)C)cc2)C1=O | 2.98
63 | O=C(O)c1c(F)c(F)c(F)c(F)c1-c1ccc(Cl)cc1 | -3.41
64 | COc1ccc(S(=O)(=O)Nc2ccc(Cl)cc2)cc1 | 0.135
65 | O=c1/c(=C/c2ccc(-c3ccc(F)cc3)o2)sc2nc(-c3ccco3)nn12 | -3.64
66 | COc1ccccc1N1CCN(C(=O)c2ccccc2C)CC1 | 1.35
67 | CCNC(=O)/C(C#N)=C/c1c(Oc2cc(C)ccc2C(C)C)nc2ccccn2c1=O | 75.9
68 | CC(NC(=O)c1cc2c(=O)n3ccccc3nc2n(CC2CCCO2)c1=N)c1ccccc1 (stereo not shown) | -1.47
69 | O=C(CN1C(=O)CSc2ncccc21)NCc1cccnc1 | 1.03
70 | O=C(Nc1nn2c(-c3ccco3)nnc2s1)C1CCCCC1 | -0.0652
71 | Cc1ccc(-n2cc(-c3ccccc3)c3c(NCCCN4CCCC4=O)ncnc32)cc1 | 5.69
72 | CCOC(=O)c1nnn(-c2nonc2N)c1-c1cccs1 | 4.84
73 | COc1ccc(NC(=O)CN(c2ccc(C)cc2)S(C)(=O)=O)cc1Cl | -20.8
74 | Cc1cc(C)cc(NC(=O)c2cccc([N+](=O)[O-])c2)c1 | 2.22
75 | Cc1nc(Oc2ccccc2)c2ccccc2n1 | -0.872

Row | Compound | % Inhibition @ 10 uM [%]
76 | O=C(O)Cc1ccc(O)cc1 | 0.565
77 | CC1CCc2c(sc3ncnc(N4CCOCC4)c23)C1 (stereo not shown) | 8.47
78 | Cc1nnc(N2CCOCC2)c2ccccc12 | -7.07
79 | O=C(CC(C(=O)O)c1ccccc1)Nc1ccccc1 (stereo not shown) | -0.95
80 | CCCc1c(C)nc2c(C(=O)OC)cnn2c1O | -3.94
81 | O=C(CN1C(=O)S/C(=C/c2cccs2)C1=O)N1CCOCC1 | -3.04
82 | CNC(=O)CN(c1ccc(C)cc1)S(=O)(=O)c1ccc(OC)c(OC)c1 | 0.324
83 | COc1ccc(S(=O)(=O)Nc2ccc(Br)cc2)cc1 | -2.6
84 | COc1ccccc1/C=C1\C(=O)NC(=S)N(c2ccccc2OC)C1=O | 0.912
85 | S=C(CN1CCCC1=S)NCCc1ccccc1 | -0.424
86 | O=C(CSc1nnc(-c2ccccc2)n1-c1ccccc1)N1CCN(C(=O)c2ccccc2)CC1 | 2.18
87 | O=C1N=C(c2ccccc2)S/C1=C\c1ccc2c(c1)OCO2 | 0.884
88 | COc1cc(C(=O)Nc2sc(Cc3ccccc3)c(C)c2C(N)=O)cc(OC)c1OC | 2.27
89 | O=C(c1ccccc1)N1CCN(CC(O)COc2ccc3ccccc3c2Br)CC1 (stereo not shown) | -5.48
90 | Cc1ccc2[nH]cc(CCNC(=O)C3CCCNC3=O)c2c1 (stereo not shown) | -5.38
91 | COc1ccc(CCNC(=O)C2C3C=CC(C3)C2C(=O)O)cc1OC (stereo not shown) | 8.69
92 | Cc1ccc2ncc(S(=O)(=O)c3ccc(Cl)cc3)c(N3CCOCC3)c2c1 | -4.51
93 | COCCNC(=O)c1nc(-c2cccnc2)no1 | -0.495
94 | Cc1cccc(Oc2nc3ccccn3c(=O)c2/C=C(\C#N)S(=O)(=O)c2ccc(Cl)cc2)c1C | -5.1
95 | COCCN1C(=O)c2ccccc2C(C(=O)NCCc2ccsc2)C1c1cccs1 (stereo not shown) | -1.98
96 | Fc1ccc(N2CCN(Cc3cn4ccccc4n3)CC2)cc1 | 4.68
97 | Cc1ccnc(NC(=O)C2CCCN(c3ncnc4c3nc3n4CCCCC3)C2)c1 (stereo not shown) | -1.46
98 | Cc1cccc(OCC(=O)N2CCN(C(=O)CCC3CCCC3)CC2)c1 | -1.6
99 | COc1cc(-c2nnc3s/c(=C\c4ccco4)c(=O)n23)cc(OC)c1OC | 11.2
100 | COc1ccc(OC)c(NS(=O)(=O)c2ccc(OC)c(Cl)c2Cl)c1 | -3.29
